In one series the test system is A20 cells. Briefly: Measurement of lactate concentration, A20 cells. Format: cell-based, murine. The note with it: 72 hours; normoxia.
The next series addresses T1, MCT4 uncoupled to BSG-2 (Mus musculus, UniProt P57787).
T1 construct: 8xHis-Flag (via Rhinovirus 3C protease-cleavable linker) (C); made in house; host or cells: HEK293S GnTI- (ATCC CRL-3022), pEG BacMam vector
T1 sequence (P57787 1-470): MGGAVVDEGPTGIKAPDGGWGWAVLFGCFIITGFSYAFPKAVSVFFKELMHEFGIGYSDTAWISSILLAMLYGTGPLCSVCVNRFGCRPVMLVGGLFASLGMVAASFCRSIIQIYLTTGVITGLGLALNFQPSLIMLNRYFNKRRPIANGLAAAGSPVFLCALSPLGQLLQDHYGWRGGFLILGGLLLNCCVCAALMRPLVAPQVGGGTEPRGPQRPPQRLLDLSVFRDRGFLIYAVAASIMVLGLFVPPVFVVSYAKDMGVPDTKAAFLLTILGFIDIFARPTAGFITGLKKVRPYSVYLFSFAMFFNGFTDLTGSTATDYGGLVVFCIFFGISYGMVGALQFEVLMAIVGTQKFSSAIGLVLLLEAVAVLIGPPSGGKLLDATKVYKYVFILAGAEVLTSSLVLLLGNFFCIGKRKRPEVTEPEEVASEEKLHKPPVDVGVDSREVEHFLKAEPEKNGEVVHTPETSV
In words: H+-L-lactate symport flux assay, WT MCT4 proteoliposomes. Format: biochemical. The note with it: 25 mM L-Lactate pH7.0; WZHAb10 6 μM; proteoliposomes with WT MCT4.

For series [1], the system named is A549 non-small-cell lung (NSCL) carcinoma cells. In words: Cell viability assay (CCK8), A549 cells. It counts as cell-based, human. Particulars: 72 hours; hypoxia.
The test system of series [2] is cancer cells (A20, A549, B16F10). Briefly: Cancer cell survival and lactate transport, pooled statements (FIGS. 5-8). It counts as cell-based.
A further series addresses T2, MCT4/BSG-2 (Mus musculus, UniProt P18572).
T2 construct: 8xHis-Flag (via Rhinovirus 3C protease-cleavable linker) (C); made in house; host or cells: HEK293S GnTI- (ATCC CRL-3022), pEG BacMam vector
In words: H+-L-lactate symport flux assay, MCT4/BSG-2 proteoliposomes (HPTS fluorescence). It counts as biochemical. The note with it: H+ influx initiated by 25 mM L-Lactate pH7.0; WZHAb10 6 μM; 25° C.; vs IgG control.

In series [3] the test system is A20(mouse tumor) xenografts. It counts as in vivo, BALB/c nude mice. Particulars: 5 mg/kg, ip, every other day; vs IgG.
A further series deals with T3, MCT1/BSG-2 complex (Mus musculus, UniProt P18572+P53986).
T3 construct: 8xHis-Flag (via Rhinovirus 3C protease-cleavable linker) (C); made in house; host or cells: HEK293S GnTI- (ATCC CRL-3022), pEG BacMam vector
T3 sequence (P53986 1-493): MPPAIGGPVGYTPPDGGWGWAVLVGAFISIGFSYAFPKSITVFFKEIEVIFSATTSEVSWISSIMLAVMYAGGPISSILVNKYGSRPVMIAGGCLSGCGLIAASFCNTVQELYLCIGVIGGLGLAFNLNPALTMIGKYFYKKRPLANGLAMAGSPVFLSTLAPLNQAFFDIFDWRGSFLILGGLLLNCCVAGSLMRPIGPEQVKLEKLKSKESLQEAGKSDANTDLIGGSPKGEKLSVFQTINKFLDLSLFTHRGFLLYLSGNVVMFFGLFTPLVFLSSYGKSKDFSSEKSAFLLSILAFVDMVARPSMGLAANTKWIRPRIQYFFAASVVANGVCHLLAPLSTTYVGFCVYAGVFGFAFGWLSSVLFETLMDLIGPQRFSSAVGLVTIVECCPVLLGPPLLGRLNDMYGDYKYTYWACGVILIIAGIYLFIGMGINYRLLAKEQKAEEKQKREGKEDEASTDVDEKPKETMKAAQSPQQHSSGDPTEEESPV
T3 sequence (P18572 22-273 isoform P18572-2 limits assumed): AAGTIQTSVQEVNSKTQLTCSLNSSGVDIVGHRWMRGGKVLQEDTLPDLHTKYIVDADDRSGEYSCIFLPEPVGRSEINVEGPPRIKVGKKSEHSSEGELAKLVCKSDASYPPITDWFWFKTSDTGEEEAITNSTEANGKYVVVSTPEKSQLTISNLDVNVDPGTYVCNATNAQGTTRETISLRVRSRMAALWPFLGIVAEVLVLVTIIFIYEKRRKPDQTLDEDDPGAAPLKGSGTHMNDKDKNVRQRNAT
In words: Binding to MCT1/BSG-2 complex by gel filtration (antibody selection). Particulars: purified hybridoma antibodies. In general terms: Size exclusion chromatography separates by hydrodynamic size, large species first.

The subject of series [4] is patient-derived NSCLC organoid. In words: Organoid drug response assay (CellTiter-Glo). Format: cell-based, human. Particulars: three days of drug incubation; three patient models. Here is the method:
All procedures performed involving human participants were approved by the Ethics Committee of Shanghai Jiao Tong University School of Medicine and were in accordance with the ethical standards of Helsinki Declaration (as revised in 2013). All the donors signed an informed consent form. Freshly excised tumor samples from patients were kept in MACS tissue storage solution (Miltenyi) at 4° C. upon harvest. Tumor tissues were minced into small pieces on ice, then incubated with 0.001% DNase (Sigma-Aldrich, MO, USA), 1 mg/mL collagenase/dispase (Roche, IN, USA), 200 U/mL penicillin, […], and […] amphotericin B (2% antibiotics, Sigma) in DMEM/F12 medium (Thermofisher) at 37° C. for three hours with gentle agitation and intermittent resuspension. Thereafter, the digested tissue suspension was repeatedly triturated via pipetting and passed through a 70 μm filter. The strained suspension was centrifuged at 112×g for three minutes, and red blood cells were lysed using lysis buffer (00443357, Thermofisher) for five minutes. […]
The organoids cultured over two weeks were harvested and dissociated using 1× TrypLe (Thermofisher). […] The plates were agitated for 30 minutes at room temperature (10° C.-30° C.) prior to measuring luminescence.

Series [5] concerns peripheral blood mononuclear cells (PBMC). In words: Toxicity on patients' PBMC. Format: cell-based, human. The note with it: at 0.0006 μM. As for the experimental part:
Then, treating organoids in presence of 5 μg/mL pembrolizumab, in combination with either of these agents (AZD3965 at 0.1 μM, GSK2837808A at 1 μM, and WZHAb10 at 0.0006 μM) and each PBMC (FIGS. 18, 19 and 20). IgG was used as control in FIG. 18, IgG and/or vehicle were used as control in FIGS. 19-20.

Another series relates to B16F10 cells. Briefly: Measurement of lactate concentration, B16F10 cells. Format: cell-based, murine. Particulars: 72 hours; hypoxia.
A further series addresses T4, MCT1 uncoupled to BSG-2 (Mus musculus, UniProt P53986).
T4 construct: 8xHis-Flag (via Rhinovirus 3C protease-cleavable linker) (C); made in house; host or cells: HEK293S GnTI- (ATCC CRL-3022), pEG BacMam vector
T4 sequence (P53986 1-493): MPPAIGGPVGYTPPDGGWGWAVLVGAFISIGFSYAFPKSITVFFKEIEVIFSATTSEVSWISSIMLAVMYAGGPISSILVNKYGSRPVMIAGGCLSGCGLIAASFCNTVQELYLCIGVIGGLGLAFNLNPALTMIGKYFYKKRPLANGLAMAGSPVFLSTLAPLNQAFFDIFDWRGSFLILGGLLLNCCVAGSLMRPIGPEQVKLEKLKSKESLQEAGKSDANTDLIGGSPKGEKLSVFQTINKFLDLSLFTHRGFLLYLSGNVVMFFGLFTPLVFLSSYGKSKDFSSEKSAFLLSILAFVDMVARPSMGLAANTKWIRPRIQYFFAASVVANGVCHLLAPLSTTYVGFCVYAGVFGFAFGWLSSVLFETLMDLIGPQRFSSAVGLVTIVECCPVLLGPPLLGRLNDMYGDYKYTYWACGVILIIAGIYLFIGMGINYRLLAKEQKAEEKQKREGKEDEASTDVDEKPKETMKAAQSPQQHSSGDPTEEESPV
In words: H+-pyruvate symport flux assay, WT MCT1 proteoliposomes. It counts as biochemical. The note with it: 25 mM pyruvate pH7.0; proteoliposomes with WT MCT1.

The next series has as its system B16F10 melanoma cells. In words: Cell viability assay (CCK8), B16F10 cells. Format: cell-based, murine. Particulars: 72 hours; hypoxia.
The test system of series [6] is A549(human tumor) xenografts. Briefly: A549 xenograft model in nude mice. The note with it: 5 mg/kg. Format: in vivo.
The subject of another series is A20 lymphoma cells. Briefly: Cell viability assay (CCK8), A20 cells. Format: cell-based, murine. Particulars: 72 hours; normoxia.
Another series concerns A549 cells. Briefly: Measurement of lactate concentration, A549 cells. Format: cell-based, human. The note with it: 72 hours; hypoxia.
A further series concerns the target T5, MCT1/BSG-2 (Mus musculus, UniProt P18572+P53986).
T5 construct: 8xHis-Flag (via Rhinovirus 3C protease-cleavable linker) (C); made in house; host or cells: HEK293S GnTI- (ATCC CRL-3022), pEG BacMam vector
T5 sequence (P53986 1-493): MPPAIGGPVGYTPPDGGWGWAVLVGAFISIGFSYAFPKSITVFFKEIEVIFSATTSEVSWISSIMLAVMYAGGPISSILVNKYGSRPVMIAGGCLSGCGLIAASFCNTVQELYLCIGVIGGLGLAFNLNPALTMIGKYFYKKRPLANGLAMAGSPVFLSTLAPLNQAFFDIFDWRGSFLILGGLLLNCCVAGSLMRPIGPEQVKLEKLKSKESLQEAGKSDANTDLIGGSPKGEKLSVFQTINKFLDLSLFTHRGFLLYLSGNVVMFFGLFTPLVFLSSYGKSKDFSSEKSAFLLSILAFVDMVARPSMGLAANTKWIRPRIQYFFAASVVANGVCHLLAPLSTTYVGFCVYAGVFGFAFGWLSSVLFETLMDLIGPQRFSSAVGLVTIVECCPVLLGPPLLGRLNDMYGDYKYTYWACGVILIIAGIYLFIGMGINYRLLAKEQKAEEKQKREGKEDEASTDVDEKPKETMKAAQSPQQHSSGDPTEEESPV
T5 sequence (P18572 22-273 isoform P18572-2 limits assumed): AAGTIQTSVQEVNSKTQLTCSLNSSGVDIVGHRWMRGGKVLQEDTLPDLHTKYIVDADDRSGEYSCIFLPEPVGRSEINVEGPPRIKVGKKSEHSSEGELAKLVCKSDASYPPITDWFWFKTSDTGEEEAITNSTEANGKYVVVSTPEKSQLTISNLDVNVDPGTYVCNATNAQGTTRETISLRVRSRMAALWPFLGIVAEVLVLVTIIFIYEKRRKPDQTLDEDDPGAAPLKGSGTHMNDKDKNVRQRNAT
In words: H+-pyruvate symport flux assay, MCT1/BSG-2 proteoliposomes (HPTS fluorescence). Format: biochemical.

Entries after “also recorded” stand apart in the source; their conditions may differ.

This is an account of results in patent publication US12357691B2, “Antibodies specifically binding to CD147 and uses thereof” (Alphelix Biotech Co., Ltd., priority 2022, dated 2025).

B1: WZHAb10: anti-CD147 (BSG-2) monoclonal antibody, subclass IgG2; heavy chain SEQ ID NO: 17, light chain SEQ ID NO: 18 (antibody)
heavy: QVQLVQSGAEVKKPGASVKVSCKASGYTFTNYWIHWVRQAPGQGLEWMGMIHPNSGSINYNEKFKTRVTMTRDTSTSTVYMELSSLRSEDTAVYYCARVGSGSLDYWGQGTLVTVSS[human IgG1 constant region left out here]
light: EIVLTQSPATLSLSPGERATLSCRASQSISDYLHWYQQKPGQAPRLLIKYVSQSISGIPARFSGSGSGTYFTLTISSLEPEDVAVYYCQNGEEAPYTFGQGTKLEIKRTVAAPSVFIFPPSDEQLKSGTASVVCLLNNFYPREAKVQWKVDNALQSGNSQESVTEQDSKDSTYSLSSTLTLSKADYEKHKVYACEVTHQGLSSPVTKSFNRGEC
Turning to B1, in the series on A20 cells, the “lactate transport of A20 cells” value is “suppressed cell survival and lactate transport”. The “effect on transport activity of MCT4 uncoupled to BSG-2” value in the series with MCT4 uncoupled to BSG-2 is “did not affect transport activity”. The “cell proliferation / survival of A549 cells” value in series [1] is on record as “suppressed cell proliferation; also recorded: suppressed cell survival”. Moreover, the “suppression of survival and lactate transport of cancer cells compared with AZD3965” value in series [2] was “stronger suppression than AZD3965”. The “reduction of transport activity of MCT4/BSG-2” value in the series with MCT4/BSG-2 is approximately 50%. Moreover, the “tumor growth, A20 xenograft” value in [3] is given as “evidently suppressed tumor growth”. Besides, the “binding to MCT1/BSG-2 complex” value in the series with MCT1/BSG-2 complex was “strong binding”. Moreover, the “anti-proliferative effect of single agent on organoids” value in series [4] was “moderate anti-proliferative effect”. Also, in series [5], the “effect on T cell growth (PBMC)” value is given as “little effects on T cell growth”. The “lactate transport of B16F10 cells” value in the series with B16F10 cells is “suppressed cell survival and lactate transport”. In addition, the “effect on transport activity of MCT1 uncoupled to BSG-2” value with MCT1 uncoupled to BSG-2 is “did not affect transport activity”. Besides, the “cell proliferation / survival of B16F10 cells” value in the series with B16F10 melanoma cells was “suppressed cell proliferation; also recorded: suppressed cell survival”. Moreover, in series [6] (ip, every other day), the “body weights during treatment, A549 xenograft” value is recorded as “little effect on body weights”. The “tumor growth, A549 xenograft” value in series [6] (ip, every other day, vs IgG) is “evidently suppressed tumor growth”. Also, the toxicity of treatment result in [6] (xenograft mice) is “not associated with any obvious toxicity”. Also, in the series on A20 lymphoma cells, the “cell proliferation / survival of A20 cells” value is given as “suppressed cell proliferation; also recorded: suppressed cell survival”. For the same molecule, in the series with A549 cells, the “lactate transport of A549 cells” value is “suppressed cell survival and lactate transport”. Further, the “reduction of transport activity of MCT1/BSG-2” value in the series with MCT1/BSG-2 (H+ influx initiated by 25 mM pyruvate pH7.0, WZHAb10 3 μM or 6 μM, 25° C., vs IgG control) was “around 75%”. The “inhibition of MCT1 transport activity (antibody selection)” value in the series with MCT1/BSG-2 (among five binding antibodies) was “proved to inhibit MCT1 transport activity”.
